From PMC12136788
Some of the results follow.

T1: UNK ZnF1-6 (called full-length) (human, UniProt Q9C0B0 30-357)
T1 sequence: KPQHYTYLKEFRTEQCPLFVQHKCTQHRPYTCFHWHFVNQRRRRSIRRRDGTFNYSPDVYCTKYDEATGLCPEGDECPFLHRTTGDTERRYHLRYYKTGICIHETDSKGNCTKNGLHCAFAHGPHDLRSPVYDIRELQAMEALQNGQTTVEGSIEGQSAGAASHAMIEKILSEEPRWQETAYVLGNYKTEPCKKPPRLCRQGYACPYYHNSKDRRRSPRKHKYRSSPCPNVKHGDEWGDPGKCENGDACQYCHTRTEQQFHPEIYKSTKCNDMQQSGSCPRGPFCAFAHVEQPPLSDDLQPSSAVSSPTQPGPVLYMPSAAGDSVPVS

B1: chr19:32875924:32879378:-|three_prime_utr|ENSG00000121289|control|control|control (ssRNA)
RNA: GGGAGUUCUACAGUCCGACGAUCACCUGCUGGACGGCUGCGAUGUCUGCUCCUAUGACCUGAAGUCUCAUGCCCCCACCUGCUAGAAUCUGCGGGAGCCCGUGGUGUAGCCUCCUCUGGCCUGAAAGGUCUGCCUCACACAGGCAACAGAGGAUUGAGCAUCA
B2: chr11:123805410:123806349:-|CDS|ENSG00000196099|control|control|control (ssRNA)
RNA: GGGAGUUCUACAGUCCGACGAUCGUGGGAGCCUUCCUGUCUGUGUUGUUUCCAACCAUUGUAGUGACAAGGCUACCUUACUGUAGGAAAGAAAUUAAUCAUUUCUUCUGUGACAUUGCCCCUCUUCUUCAGGUGGCCUGUAUACAACAGAGGAUUGAGCAUCA
B3: chr11:118396625:118396726:+|3pUTR|ENSG00000110344|msi1|total|mutant (ssRNA)
RNA: GGGAGUUCUACAGUCCGACGAUCAACUUGACAAUGCUCCCCUGGCUUGCAGGAAAUUAUACUUAUUACCGCAUCACCAAGUUCCGAAAUCAUCACUAAUUUUCACCCUCUGUUGUCUCUUCAUAUUCUUCUUCCUUUUCCUAACAACAGAGGAUUGAGCAUCA
B4: chr2:27433287:27433389:+|CDS|ENSG00000115216|unk|total|mutant (ssRNA)
RNA: GGGAGUUCUACAGUCCGACGAUCUUCCAGCAUGUCGGAGGGGGAGUCCCAGACAGUACUCCGCAGUGGCUCAGACCCAAAGGCCGAAUCCUCAUCUUCAGCUCCUGGCCUGACAUCAGUGUCACCUCCUGUGACCUCCACAACCAACAGAGGAUUGAGCAUCA
B5: chr12:79451877:79451978:+|3pUTR|ENSG00000067715|msi1|FALSE|unique (ssRNA)
RNA: GGGAGUUCUACAGUCCGACGAUCCCUUCAUUUUUGAUGAGGUGAUUUAAAUUUUGUUUCACUUUGUGUAGUGAAUUCCACAGUAGUUUUCUGAUUGUUGUUAAAAAUGACUUAACAUAUUACACAGAUAUUCAAUAAAAAUGUCAACAGAGGAUUGAGCAUCA
B6: chr15:50499333:50499363:+|3pUTR|ENSG00000138592|msi1_unk|FALSE|overlapping (ssRNA)
RNA: GGGAGUUCUACAGUCCGACGAUCCAGGUACCAUUUAUUUCAAAACAACUUUUUUAGUCUGCUCCAAAGUUAAAAUAAUUAACUAGCUAAGCAUUAUUAUUCGACUGGUCUAAAAACUAUUGUUAUCUUUUUUUUUUCCUUUUCCAACAGAGGAUUGAGCAUCA
B7: chr12:6238009:6238110:+|3pUTR|ENSG00000010278|msi1_unk|FALSE|overlapping (ssRNA)
RNA: GGGAGUUCUACAGUCCGACGAUCAUAAAAGCUGAAGUUACUUUAUGUUUGUCUUUUAAUGCUUCAUUCAAUAUUGACAUUUGUAGUUGAGCGGGGGGUUUGGUUUGCUUUGGUUUAUAUUUUUUCAGUUGUUUGUUUUUGCUUCAACAGAGGAUUGAGCAUCA
B8: chr15:49644301:49644402:+|3pUTR|ENSG00000104047|msi1|FALSE|unique (ssRNA)
RNA: GGGAGUUCUACAGUCCGACGAUCAAUAAUUGAAGCCUACCUGCUAGUGGCCAUCUCUGCUGCCAGGUGAAAAGAGCCUGACUUAGAAUGAAGUCAGCGAAGGAAAGCAGAGUGGAGAGAAAAAGAGAGACUGAGUCCUGAUGACAACAGAGGAUUGAGCAUCA
B9: chr1:68475836:68475940:-|3pUTR|ENSG00000024526|unk|FALSE|unique (ssRNA)
RNA: GGGAGUUCUACAGUCCGACGAUCAUGCCCAGGGCCUAACUUACACUAAUUAAAUCUGAAUUUUGGGGAUGUUGUAUAGGGAUUAGUAUUUUUUUUAAUCUAGGUGAUUCCAAUAUUCAGCCAACUGUGAGAAUCAAUGGCCUACAACAGAGGAUUGAGCAUCA
B10: ENSG00000196510:stop:overlap|stop_codon|ENSG00000196510|stop_codon|NA|stop_codon (ssRNA)
RNA: GGGAGUUCUACAGUCCGACGAUCUCCUUGUAGCUGUCAAUGAGUAUCAGGAGGCAAUGGACCAGUAUAGUAUAGCACUAAGGUAGGCACUAGCCUCCCUUGGGGGAAGGCCACUGAGGAGGGUAGAGGAGGCAGUGAGCUGUGCAACAGAGGAUUGAGCAUCA
B11: chr12:49763637:49763739:+|3pUTR|ENSG00000139644|msi1_unk|FALSE|overlapping (ssRNA)
RNA: GGGAGUUCUACAGUCCGACGAUCAUGUGUAUCAAGGUACAGCAUCGUAGGGUUCCCCUAAACUUGCCCUGUUUUUGUUUUUUUAGUUUGUUAUCCCCUUACUGAGCGGCCUCUACUAGGUGGCUGUGAUUAAAUGUCCCAAGCCAACAGAGGAUUGAGCAUCA
B12: chr21:39174768:39175664:-|three_prime_utr|ENSG00000183527|control|control|control (ssRNA)
RNA: GGGAGUUCUACAGUCCGACGAUCUUGAUGACAACAAAUGAGAUUCAGAGUAACAUUUAUACAUGAUCUUAAACAUUGUUUUGUAGUGUAUAUUACUUGUCCAUUCCUUUAAGGGGAGCAGCCUGCACUCUUUUGUAGAUUACUCAACAGAGGAUUGAGCAUCA
B13: chr7:114979563:114979664:+|CDS|ENSG00000135272|unk|FALSE|unique (ssRNA)
RNA: GGGAGUUCUACAGUCCGACGAUCCCAACCUCAGCGCUUGCCUCAGCUUCAGACUUCAGCCCAGGUGCCAAGUGGUGAGGAAAUAGGCAAGAUAAAGAACGGCCACACAGGUCUGAGCAAUGGAAAUGGAAUUCACCACGGGGCCAACAGAGGAUUGAGCAUCA
B14: chr11:62888716:62888817:+|3pUTR|ENSG00000168003|unk|total|mutant (ssRNA)
RNA: GGGAGUUCUACAGUCCGACGAUCUUUUCUCUUUUUUAAAAACAAACAAACAAACUGUUGCAGAUUAUGAGUGAACCCCCAAACCGGGUGUUUUCUGCCUUCAAAUAAAAGUCACCCCUGCAUGGUGAAGUCUUCCCUCUGCUUCAACAGAGGAUUGAGCAUCA

Target: T1, UNK ZnF1-6 (called full-length)
Assay: nsRBNS (natural sequence RNA bind-n-seq); RBNS binding buffer (assumed for nsRBNS): 25 mM Tris pH 7.5, 150 mM KCl, 3 mM MgCl2, 0.01% Triton X-100, 500 ug/ml BSA, 20 U/ml SUPERase-In, 4 C; UNK is unkempt and MSI1 is Musashi-1; names of the RNAs are library labels; protein concentration not given here; high values mean tight binding

Binder | binding signal [enrichment R]
B1 | 0.849
B2 | 0.594
B3 | 0.979
B4 | 0.734
B5 | 0.827
B6 | 9.13
B7 | 2.07
B8 | 0.621
B9 | 11.6
B10 | 0.847
B11 | 1.99
B12 | 0.615
B13 | 0.712
B14 | 0.587
